Measured values published in the supplement of paper PMC11741623.
The other results are listed elsewhere or left out. Interaction screen of human proteins with wild-type SARS-CoV-2 proteins by split-DHFR complementation in yeast, 1 µg/mL methotrexate. Value = fitness of the pair (three or more lineages) minus that of the viral protein without a human partner, on a scale set by negative (0) and fused positive (1) controls, mean of up to three cultures; higher = more likely to interact. Active = false discovery rate below 0.05 (one-sided t-test) in at least one culture. Nearly all pairs are not hits, and differences among them are mostly noise (correlation between cultures about 0.3); most hits were seen in one culture only. Human sequences are the Swiss-Prot entries looked up by gene name; the clone may be another isoform. NSP2 values were corrected by the authors for a growth advantage. Listed are human proteins with a hit and a random twelfth of the others.

Key:
Experiment in all cases: yeast fitness gain over the viral ORF with no human partner (scaled fitness); higher = more likely to interact
SARS-CoV-2 M = target: SARS-CoV-2 M
Experimental: (§1)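 Split mouse DHFR complementation in pooled diploid yeast: human ORFeome clones carry one fragment and viral ORFs the other; barcoded lineages compete in 1 µg/mL methotrexate and fitness is read by barcode sequencing in up to three cultures.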

SARS-CoV-2 N = target: SARS-CoV-2 N
Experimental: as §1

SARS-CoV-2 NSP1 = target: SARS-CoV-2 NSP1
Experimental: as §1

SARS-CoV-2 NSP10 = target: SARS-CoV-2 NSP10
Experimental: as §1

SARS-CoV-2 NSP12 = target: SARS-CoV-2 NSP12
Experimental: as §1

SARS-CoV-2 NSP13 = target: SARS-CoV-2 NSP13
Experimental: as §1

SARS-CoV-2 NSP14 = target: SARS-CoV-2 NSP14
Experimental: as §1

SARS-CoV-2 NSP16 = target: SARS-CoV-2 NSP16
Experimental: as §1

SARS-CoV-2 NSP2 = target: SARS-CoV-2 NSP2
Experimental: as §1

SARS-CoV-2 NSP6 = target: SARS-CoV-2 NSP6
Experimental: as §1

SARS-CoV-2 NSP7 = target: SARS-CoV-2 NSP7
Experimental: as §1

SARS-CoV-2 NSP8 = target: SARS-CoV-2 NSP8
Experimental: as §1

SARS-CoV-2 ORF10 = target: SARS-CoV-2 ORF10
Experimental: as §1

SARS-CoV-2 ORF3A = target: SARS-CoV-2 ORF3A
Experimental: as §1

SARS-CoV-2 ORF3B = target: SARS-CoV-2 ORF3B
Experimental: as §1

SARS-CoV-2 ORF6 = target: SARS-CoV-2 ORF6
Experimental: as §1

SARS-CoV-2 ORF7A = target: SARS-CoV-2 ORF7A
Experimental: as §1

SARS-CoV-2 ORF8 = target: SARS-CoV-2 ORF8
Experimental: as §1

SARS-CoV-2 ORF9B = target: SARS-CoV-2 ORF9B
Experimental: as §1

[1] = target: SARS-CoV-2 ORF9Bwu (the 73-codon ORF)
Experimental: as §1

SARS-CoV-2 S = target: SARS-CoV-2 S
Experimental: as §1

SARS-CoV-2 NSP5 = target: SARS-CoV-2 NSP5
Experimental: as §1

SARS-CoV-2 ORF7B = target: SARS-CoV-2 ORF7B
Experimental: as §1

SARS-CoV-2 NSP4 = target: SARS-CoV-2 NSP4
Experimental: as §1

Measured: yeast fitness gain

B1: CMIP, Q8IY22 (protein)
chain: MDVTSSSGGGGDPRQIEETKPLLGGDVSAPEGTKMGAVPCRRALLLCNGMRYKLLQEGDIQVCVIRHPRTFLSKILTSKFLRRWEPHHLTLADNSLASATPTGYMENSVSYSAIEDVQLLSWENAPKYCLQLTIPGGTVLLQAANSYLRDQWFHSLQWKKKIYKYKKVLSNPSRWEVVLKEIRTLVDMALTSPLQDDSINQAPLEIVSKLLSENTNLTTQEHENIIVAIAPLLENNHPPPDLCEFFCKHCRERPRSMVVIEVFTPVVQRILKHNMDFGKCPRLRLFTQEYILALNELNAGMEVVKKFIQSMHGPTGHCPHPRVLPNLVAVCLAAIYSCYEEFINSRDNSPSLKEIRNGCQQPCDRKPTLPLRLLHPSPDLVSQEATLSEARLKSVVVASSEIHVEVERTSTAKPALTASAGNDSEPNLIDCLMVSPACSTMSIELGPQADRTLGCYVEILKLLSDYDDWRPSLASLLQPIPFPKEALAHEKFTKELKYVIQRFAEDPRQEVHSCLLSVRAGKDGWFQLYSPGGVACDDDGELFASMVHILMGSCYKTKKFLLSLAENKLGPCMLLALRGNQTMVEILCLMLEYNIIDNNDTQLQIISTLESTDVGKRMYEQLCDRQRELKELQRKGGPTRLTLPSKSTDADLARLLSSGSFGNLENLSLAFTNVTSACAEHLIKLPSLKQLNLWSTQFGDAGLRLLSEHLTMLQVLNLCETPVTDAGLLALSSMKSLCSLNMNSTKLSADTYEDLKAKLPNLKEVDVRYTEAW
inactive: SARS-CoV-2 M 0.0956 | SARS-CoV-2 N -0.451 | SARS-CoV-2 NSP1 = -0.176 | SARS-CoV-2 NSP10 = -0.0659 | SARS-CoV-2 NSP12 = -0.0294 | SARS-CoV-2 NSP13 = 0.0315 | SARS-CoV-2 NSP14 = -0.693 | SARS-CoV-2 NSP16 = -0.371 | SARS-CoV-2 NSP2 = -0.419 | SARS-CoV-2 NSP6 = 0.0636 | SARS-CoV-2 NSP7 = 0.00602 | SARS-CoV-2 NSP8 = -0.044 | SARS-CoV-2 ORF10 = 0.0501 | SARS-CoV-2 ORF3A -0.102 | SARS-CoV-2 ORF3B 0.102 | SARS-CoV-2 ORF6 = 0.0185 | SARS-CoV-2 ORF7A -0.157 | SARS-CoV-2 ORF8 = 0.0125 | SARS-CoV-2 ORF9B 0.0974 | [1] 0.0181 | SARS-CoV-2 S 0.0508

B2: FAM204A, Q9H8W3 (protein)
chain: MWSGLLPPGLNESDAESNSEDEATLENSGLNLQEDKEDESIRKTEIIDFSTDEPKTETESNVNAYEECPSGIPIDMWNKFQELHKKHSEQKSTTSRFRGKRRKRSRKDKLKNEKELHSEPSSNETQWKELTQYFGVNDRFDPPVKRKKVEKSGLEKRIDQAVEEWNIEKAEELSNQLATRELGVKIAKAVACHNFVKAKKEVENSQAARKKKKLAWGFEAKKRWETKSNMGYM
inactive: SARS-CoV-2 M 0.0539 | SARS-CoV-2 NSP1 = -0.0689 | SARS-CoV-2 NSP10 = -0.0218 | SARS-CoV-2 NSP12 = 0.0154 | SARS-CoV-2 NSP13 = -0.0169 | SARS-CoV-2 NSP16 = 0.00535 | SARS-CoV-2 NSP2 = -0.166 | SARS-CoV-2 NSP5 = -0.103 | SARS-CoV-2 NSP6 = 0.0638 | SARS-CoV-2 NSP7 = 0.0537 | SARS-CoV-2 NSP8 = -0.00826 | SARS-CoV-2 ORF10 = -0.0203 | SARS-CoV-2 ORF3A -0.0718 | SARS-CoV-2 ORF3B 0.0316 | SARS-CoV-2 ORF6 = -0.0142 | SARS-CoV-2 ORF7A 0.00459 | SARS-CoV-2 ORF7B -0.212 | SARS-CoV-2 ORF8 = 0.00846 | SARS-CoV-2 ORF9B -0.0624 | [1] -0.0273 | SARS-CoV-2 S -0.00615

B3: EPHA8, P29322 (protein)
chain: MAPARGRLPPALWVVTAAAAAATCVSAARGEVNLLDTSTIHGDWGWLTYPAHGWDSINEVDESFQPIHTYQVCNVMSPNQNNWLRTSWVPRDGARRVYAEIKFTLRDCNSMPGVLGTCKETFNLYYLESDRDLGASTQESQFLKIDTIAADESFTGADLGVRRLKLNTEVRSVGPLSKRGFYLAFQDIGACLAILSLRIYYKKCPAMVRNLAAFSEAVTGADSSSLVEVRGQCVRHSEERDTPKMYCSAEGEWLVPIGKCVCSAGYEERRDACVACELGFYKSAPGDQLCARCPPHSHSAAPAAQACHCDLSYYRAALDPPSSACTRPPSAPVNLISSVNGTSVTLEWAPPLDPGGRSDITYNAVCRRCPWALSRCEACGSGTRFVPQQTSLVQASLLVANLLAHMNYSFWIEAVNGVSDLSPEPRRAAVVNITTNQAAPSQVVVIRQERAGQTSVSLLWQEPEQPNGIILEYEIKYYEKDKEMQSYSTLKAVTTRATVSGLKPGTRYVFQVRARTSAGCGRFSQAMEVETGKPRPRYDTRTIVWICLTLITGLVVLLLLLICKKRHCGYSKAFQDSDEEKMHYQNGQAPPPVFLPLHHPPGKLPEPQFYAEPHTYEEPGRAGRSFTREIEASRIHIEKIIGSGDSGEVCYGRLRVPGQRDVPVAIKALKAGYTERQRRDFLSEASIMGQFDHPNIIRLEGVVTRGRLAMIVTEYMENGSLDTFLRTHDGQFTIMQLVGMLRGVGAGMRYLSDLGYVHRDLAARNVLVDSNLVCKVSDFGLSRVLEDDPDAAYTTTGGKIPIRWTAPEAIAFRTFSSASDVWSFGVVMWEVLAYGERPYWNMTNRDVISSVEEGYRLPAPMGCPHALHQLMLDCWHKDRAQRPRFSQIVSVLDALIRSPESLRATATVSRCPPPAFVRSCFDLRGGSGGGGGLTVGDWLDSIRMGRYRDHFAAGGYSSLGMVLRMNAQDVRALGITLMGHQKKILGSIQTMRAQLTSTQGPRRHL
inactive: SARS-CoV-2 M 0.0653 | SARS-CoV-2 NSP1 = 0.0744 | SARS-CoV-2 NSP10 = 0.0229 | SARS-CoV-2 NSP12 = -0.00895 | SARS-CoV-2 NSP13 = 0.0113 | SARS-CoV-2 NSP14 = 0.131 | SARS-CoV-2 NSP2 = -0.135 | SARS-CoV-2 NSP4 = 0.0481 | SARS-CoV-2 NSP5 = -0.036 | SARS-CoV-2 NSP6 = 0.0476 | SARS-CoV-2 NSP7 = 0.00287 | SARS-CoV-2 NSP8 = 6.9e-05 | SARS-CoV-2 ORF10 = 0.0465 | SARS-CoV-2 ORF3B 0.0514 | SARS-CoV-2 ORF6 = 0.0601 | SARS-CoV-2 ORF7A -0.0223 | SARS-CoV-2 ORF7B 0.101 | SARS-CoV-2 ORF8 = 0.044 | SARS-CoV-2 ORF9B 0.00608 | SARS-CoV-2 S -0.118
